From publication PMC12136788
The other results are listed elsewhere or left out.

T1: UNK ZnF1-3 (human, UniProt Q9C0B0 31-174)
T1 sequence: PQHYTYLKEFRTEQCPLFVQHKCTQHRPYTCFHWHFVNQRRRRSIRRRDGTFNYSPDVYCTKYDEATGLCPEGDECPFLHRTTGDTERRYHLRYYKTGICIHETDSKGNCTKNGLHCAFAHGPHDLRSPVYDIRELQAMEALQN

B1: chr7:149838571:149838572:-_ENSMUSG00000048583_ENSMUST00000000033|mus_mus|FALSE|FALSE (ssRNA)
RNA: GGGAGUUCUACAGUCCGACGAUCCAUGUAUCACUUGGCAGUGCCAUCUCCUUAUCUGGCCAAACUUAUUCUACACUGGCUAGUCAUUGGUCCUCAUGGCGGGGGUGGUUGGGGAGCACCGGGCUCACCAUGUGGACAGGUGCUCAACAGAGGAUUGAGCAUCA
B2: chr2:114393739:114393740:-_ENSMUSG00000057147_ENSMUST00000102542|mus_mus|FALSE|FALSE (ssRNA)
RNA: GGGAGUUCUACAGUCCGACGAUCAUUAGAAGCUAUCAUCUCUCGGAGCAAAUCUUCCUGGUUUCUUUGCCAAAGAUAAGCUAAAGGCUGGAGAUUGAGUCGUUUACAUACAUUUUCUACUCGUCCACGUUGAUAGUCAGAGAGCAACAGAGGAUUGAGCAUCA
B3: chr18:55283160:55283161:-_ENSG00000134440_ENST00000256854|hu_hu|motif|central (ssRNA)
RNA: GGGAGUUCUACAGUCCGACGAUCGUUCUUCAACUGUGAUUUAGAAAUAACAUUCCACCUCUCAUUUUCUUUUUGUGAAUCGGCGUAAAUGGUAGGAAAUGGUUCUUUCCCUACUGUCAUCAAAGCCUUUAGACCUGUUUUAAACAACAGAGGAUUGAGCAUCA
B4: chr3:119450855:119450856:-_ENSMUSG00000028134_ENSMUST00000029780|mus_hu|mus_mus_mus_hu_False|8_8 (ssRNA)
RNA: GGGAGUUCUACAGUCCGACGAUCUGUGGUGCCACUAAGAGGAGUAUUUGCUGUCUGGACAGCUGUCACAGCUUGAAGAACUGCCUGAGCACGUUGGUUUAAUGUAUUAUCUGUCUUUAGUUCUUUGUGAUUGGAGUACUGGAUCAACAGAGGAUUGAGCAUCA
B5: chr10:22606824:22606825:+_ENSG00000148444_ENST00000456711|hu_hu|FALSE|FALSE (ssRNA)
RNA: GGGAGUUCUACAGUCCGACGAUCAUGUAAGUUGCAGCUGCUGCAUGACAAUGUUUUAAAACCACUGGGUCGAUAUGUUUCAAGUCUGGAUGAUCUAACACGGCCUCGUCCGCCUGGGCGUCCAGCAGACUCUGGAAUGCCGCCCAACAGAGGAUUGAGCAUCA
B6: 137368508_137368628_152_5pUTR_ENSG00000031003_ENST00000033079|human|control|control (ssRNA)
RNA: GGGAGUUCUACAGUCCGACGAUCCUUCUCCAGGACCCGCGGCGACGGCAAGAGGGCGAGAACUGAGGCCCCAAGUGGCUCCGCGGCCGAGAAGCCUCUUCCUGGGGCGGCCGCUGACGGGAGGUUAAAGCUACGGCUGUGGCGCAACAGAGGAUUGAGCAUCA
B7: chr6:38652254:38652255:-_ENSG00000124767_ENST00000373365|hu_hu|hu_hu_hu_mus_False|1_68 (ssRNA)
RNA: GGGAGUUCUACAGUCCGACGAUCCGAGAACUUCAUAGCAGGGAAGUCAAGCUUCUGCAGGAGGGUCAUUCCAAGAACCCUCGUAUAAAAAUCCAGGGACUUCUUAGGAUCCUUAAUUCUUAGCAUCGUUUGCUGCAAUAGAAACAACAGAGGAUUGAGCAUCA
B8: chr10:70097624:70097625:+_ENSG00000096746_ENST00000354695|hu_hu|FALSE|FALSE (ssRNA)
RNA: GGGAGUUCUACAGUCCGACGAUCGUCCAUCGUCAAUGUUAUCCCAUUUGGCACGAUUUCCAACCCUUGAAAGAACUGAACUAUUUCCUCUUUGCUGCAACCAAAUGGUAGUCCACGAAGUCGUACUGUCCCAUCACUAGCGUCCAACAGAGGAUUGAGCAUCA
B9: chr2:48026839:48026840:+_ENSG00000116062_ENST00000540021|hu_hu|hu_hu_hu_mus_False|8_78 (ssRNA)
RNA: GGGAGUUCUACAGUCCGACGAUCAUAGUGAGCCACUAGCGUCCUAAAUCUGGAACAAUGGCGAUCAUCCGAAAACUGGCCGAUGAAAAACUUGCCCAGUGAAGUGUCCACAAAGCAAACACCAUACGCACGAGUAUGACCAGACAACAGAGGAUUGAGCAUCA
B10: chr17:64801638:64801639:+_ENSG00000154229_ENST00000413366|hu_mus|hu_hu_hu_mus_False|68_68 (ssRNA)
RNA: GGGAGUUCUACAGUCCGACGAUCUAUAUAUAUAUAUACAUAUGUACACAUAUAUAGUAAAACCCUAAUCUAUCACGUAAAGUAGCCAUUCAUUUUUAAAAUUACAUCUACAUUAAAAAAUUAAUAUAUCUGAUAGAGUGCCAGCAACAGAGGAUUGAGCAUCA
B11: chr5:40767622:40767623:-_ENSG00000132356_ENST00000397128|hu_mus|hu_hu_hu_mus_False|48_108 (ssRNA)
RNA: GGGAGUUCUACAGUCCGACGAUCAUCUUUGAUUGUGGCCCUCUUCAUGGGAUCCACCUGCAGCAUAUGUUUCAAAAGGCUGAUUACAGAAGGAUUUAAGUACUGAGGGGUAUAAAAGAUCCCAUCACAUAUCUUCUUAAAAAGCAACAGAGGAUUGAGCAUCA
B12: chr11:54683702:54683703:+_ENSMUSG00000020267_ENSMUST00000020504|mus_hu|FALSE|FALSE (ssRNA)
RNA: GGGAGUUCUACAGUCCGACGAUCCACAUUUCUUGCCAACAAUCAUUAAGUGUCCAAGAAGACUUUCAUCAUCAUCUUCUGCCACAGAAAUCUGGGAUAUAUGUUUCUUGGGUAUCACCAGAAAAUGUGUUGGUGCUUGAGGGGCAACAGAGGAUUGAGCAUCA
B13: 54250035_54256734_482_CDS_ENSG00000145216_ENST00000306932|human|control|control (ssRNA)
RNA: GGGAGUUCUACAGUCCGACGAUCAUUAAUGCUUCCAGGUGCAUCAAGGUCUACUCCUUUGACUUUUGUCCCUGUAGUUCCAUAAACUCUUCCCCCUGUCUUGAUGUUAAGAUUUACAGGUGCUGUACCAUAACUCCCAUACUGCAACAGAGGAUUGAGCAUCA
B14: chr4:95690885:95690886:+_ENSMUSG00000028572_ENSMUST00000156910|mus_mus|mus_mus_mus_hu_False|88_98 (ssRNA)
RNA: GGGAGUUCUACAGUCCGACGAUCUUUAGAAAAUGUUAAUGUUAAAUAGCAUGCUAAUUCAAAGGCUUAUUUUAUUUUACCAGAAGUCACAGGCAAGCAGACACUACAAGAAUAUAUGAAAAUGAAACUCAACAAUAUAACUGUCAACAGAGGAUUGAGCAUCA

target: T1, UNK ZnF1-3; assay: nsRBNS (natural sequence RNA bind-n-seq); RBNS binding buffer (assumed for nsRBNS): 25 mM Tris pH 7.5, 150 mM KCl, 3 mM MgCl2, 0.01% Triton X-100, 500 ug/ml BSA, 20 U/ml SUPERase-In, 4 C; UNK is unkempt and MSI1 is Musashi-1; names of the RNAs are library labels; protein concentration not given here; high values mean tight binding

Binder | binding signal
B1 | 0.672 enrichment R
B2 | 0.802 enrichment R
B3 | 0.455 enrichment R
B4 | 0.972 enrichment R
B5 | 0.873 enrichment R
B6 | 0.845 enrichment R
B7 | 0.519 enrichment R
B8 | 0.685 enrichment R
B9 | 1.23 enrichment R
B10 | 1.8 enrichment R
B11 | 1.52 enrichment R
B12 | 0.798 enrichment R
B13 | 0.722 enrichment R
B14 | 1.58 enrichment R
